# Paper PMC6919601, “Identification of Plasmodium dipeptidyl aminopeptidase allosteric inhibitors by high throughput screening” (PLoS ONE, 2019)
# “And” between values parts separate entries of the source, which are not always exact repeats. Equal values may be shown once. The whole screen tested about 110,000 compounds, of which about 230 (0.21%) showed an effect of 50% or more. Some of the results follow.
# Molecular target: DPAP1 (Plasmodium falciparum, UniProt Q8IIJ9)
# Experiment: primary screen, percent inhibition; read by cleavage of a fluorogenic dipeptide substrate; higher = more effect of the substance
# Set-up: species or system P. falciparum D10 trophozoite lysates; single well
# 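Note: 30 min substrate incubation versus DMSO and 10 µM JCP410 controls.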
# Chain of DPAP1 (Q8IIJ9 whole entry, looked up): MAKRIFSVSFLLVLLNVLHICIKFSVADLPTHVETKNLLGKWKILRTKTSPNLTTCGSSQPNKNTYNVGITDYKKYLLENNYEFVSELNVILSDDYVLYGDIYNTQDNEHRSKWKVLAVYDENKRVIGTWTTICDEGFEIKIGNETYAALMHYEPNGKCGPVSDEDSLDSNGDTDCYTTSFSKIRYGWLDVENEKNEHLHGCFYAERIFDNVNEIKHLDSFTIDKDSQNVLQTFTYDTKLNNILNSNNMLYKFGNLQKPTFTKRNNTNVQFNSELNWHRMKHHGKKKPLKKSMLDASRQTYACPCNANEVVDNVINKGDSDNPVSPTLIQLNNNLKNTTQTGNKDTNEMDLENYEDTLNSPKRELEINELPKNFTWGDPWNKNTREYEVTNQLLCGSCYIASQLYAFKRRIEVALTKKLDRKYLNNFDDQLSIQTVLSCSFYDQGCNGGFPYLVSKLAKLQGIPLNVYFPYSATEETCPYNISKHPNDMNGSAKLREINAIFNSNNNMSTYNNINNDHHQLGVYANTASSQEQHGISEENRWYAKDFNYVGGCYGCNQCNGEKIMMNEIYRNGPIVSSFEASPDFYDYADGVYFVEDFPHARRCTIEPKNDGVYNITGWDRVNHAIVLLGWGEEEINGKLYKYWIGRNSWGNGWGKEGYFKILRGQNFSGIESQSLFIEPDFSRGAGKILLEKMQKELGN
row,SMILES,% Inhibition @ 10 uM
1,CCOc1cccc2cc(-c3nc(-c4nonc4N)no3)c(=O)oc12,1.4%
2,O=C(NCCc1ccccc1)c1ccc(CS(=O)(=O)c2c(Cl)cccc2Cl)o1,2.37%
3,CC(=O)c1cc2c(cc1NC(=O)CCC(=O)O)OCO2,4.3%
4,CCOc1ccc(C(=O)Nc2ccc(S(=O)(=O)Nc3nc(C)cc(C)n3)cc2)cc1,2.66%
5,O=C(Cn1ncn2nc(-c3cccs3)cc2c1=O)NC1CCN(Cc2ccccc2)CC1,-2.85%
6,O=C(NCCO)c1ccc2ccccc2n1,-0.0267%
7,CCCCCCCOc1ccc(-c2noc(-c3ccc(Br)cc3)n2)cc1,-4.31%
8,CCOc1ccccc1CNS(=O)(=O)c1cc(-c2cc(C)no2)ccc1C,-5.31%
9,CCCCC1=NN(C(=O)c2cccnc2)C(O)(C(F)(F)F)C1 (stereo not drawn),-4.84%
10,Cc1cc(S(=O)(=O)N2CC(=O)N(CCc3ccccc3)C(=O)C2)ccc1F,5.01%
11,COc1ccc2[nH]c(C)c(CCNCc3ccc(OC)c(C)c3OC)c2c1,1.35% and 5.99%
12,Cc1ccnc(NS(=O)(=O)c2ccc(NC(=O)c3ccco3)cc2)n1,-0.661%
13,COc1ccc(S(=O)(=O)N(C)CC(=O)N2CCN(c3ccccc3OC)CC2)cc1,2.98%
14,Cc1nsc2ccc3sccc3c12,1.72%
15,CC1(C)CC(=O)C2=C(C1)NC(=O)CC2c1cc(F)ccc1F (stereo not drawn),3.67%
16,CCOc1cc(C2C3=C(O)CC(C)(C)CC3=NC(C)=C2C(=O)Nc2ccccc2C)ccc1O (stereo not drawn),4.7%
17,Cc1cc2ccccc2n1CCNC(=O)C1CCCC1,-8.2%
18,COc1ccc(-c2nnc3s/c(=C\c4sccc4C)c(=O)n23)cc1OC,3.72%
19,O=C1OC(C(=O)Nc2ncc(Cc3cccc(Cl)c3Cl)s2)Cc2ccccc21 (stereo not drawn),-4.85%
20,COc1ccc(-c2cc3nc(C)c(C(=O)O)cn3n2)cc1OC,0.677%
21,C=CCOc1c(Cl)cc(/C=C2/SC(=O)NC2=O)cc1OCC,-3.04%
22,O=C(CN(c1cccc(Cl)c1Cl)S(=O)(=O)c1ccccc1)NCc1ccncc1,-4.86%
23,CCOc1ccc(C(=O)Nc2ccccc2Cl)cc1Cl,2.95%
24,COc1ccccc1CNC(=O)c1cccc2c1C(=O)N(Cc1cccnc1)C2,-2.29%
25,CN(Cc1ccccc1Br)CC(O)c1ccccc1 (stereo not drawn),1.9%
26,COc1cccc(C(=O)N[C@@H](CS(=O)(=O)Cc2ccccc2)C(=O)NCC#N)c1,0.079%

row,SMILES,% Inhibition @ 10 uM
1,COc1cc(OC)cc(C(=O)Nc2ccc(C)c(O)c2)c1,2.48%
2,O=C(NC12CC3CC(CC(C3)C1)C2)OC1CN2CCC1CC2 (stereo not drawn),-2.36%
3,c1cnc(Nc2nc(-c3ccncc3)cs2)nc1,-8.19%
4,CCc1nc(C)cc(CSc2nc3ccccc3[nH]2)c1O,1.29%
5,CCNS(=O)(=O)c1ccc(-c2cc(C(F)(F)F)no2)s1,-2.68%
6,CC(C)CC(C(=O)NCC#N)c1cccc(-c2csc(N3CCN(C(=O)OC(C)(C)C)CC3)n2)c1 (stereo not drawn),0.173%
7,CC(SC(=S)N1CCOCC1)C(=O)O (stereo not drawn),-7.88%
8,Cc1nc2ccc(S(=O)(=O)NCC(=O)N(C)Cc3ccccc3)cc2s1,2.57%
9,Cc1cc(N2CCOCC2)nc(N2CCC(C(=O)O)CC2)n1,3.66%
10,COc1ccc(F)cc1S(=O)(=O)n1nc(C)c(Cl)c1C,-0.0678%
11,Nc1cccc2c(S(=O)(=O)O)cccc12,-1.69%
12,Cn1nc(C(=O)N2CC=C(c3ccccc3)CC2)c2c1-c1ccccc1SC2,12%
13,COC(=O)C1=CN(Cc2ccc(OC)cc2)C=C(C(=O)OC)C1c1ccc(OC)c(O)c1,4.99%
14,COc1ccc(C(=O)Nc2nc(-c3nnn(-c4ccc(F)cc4C)c3C)ns2)cc1,1.8%
15,C1CCCC(NCCN2CCCCC2)CC1,2.85%
16,Cc1noc(/C=C/c2ccco2)c1S(=O)(=O)N1CCC(C(=O)NC(C)c2ccccc2)CC1 (stereo not drawn),3.57%
17,CCOC(=O)C1CCCN(CCC(C)c2ccccc2)C1 (stereo not drawn),-7.34%
18,Cc1ccc(S(=O)(=O)NCC(=O)NC2CCCCCC2)cc1,2.84%
19,CCOC(=O)C1=C(CC)OC(N)=C(C#N)C1c1ccc(Cl)cc1 (stereo not drawn),4.6%
20,Cc1ccccc1CNC(=O)c1ccccc1C(=O)O,-2.09%
21,CC(=O)OC(C)CC#CCN1CCCCC1 (stereo not drawn),-3.26%
22,CCCN1CCC(N2CCOCC2)CC1,2.98%
23,O=C(CCN1C(=O)c2ccccc2Sc2ncccc21)NCc1cccc(Cl)c1,-7.87%
24,CCC(=O)N1c2ccccc2N=C2CC(C)(C)CC(O)=C2C1c1ccc(OC)cc1OC (stereo not drawn),1.01%
25,CC1(C)OC(=O)C(=Cc2cc(Br)c(O)c(Br)c2)C(=O)O1,-4.93%
26,CCOc1ccc(S(=O)(=O)N(C(=O)c2ccccc2)c2ccc3oc(C)c(C(C)=O)c3c2)cc1,-14.4%

row,SMILES,% Inhibition @ 10 uM
1,Cc1ccc2nc(O)c3cc(C(=O)N4CCN(C(=O)c5ccco5)CC4)sc3c2c1,3.32%
2,O=C1N=C(N2CCOCC2)S/C1=C/c1ccc(-c2ccc(F)cc2)o1,-1.04%
3,N=c1c2c(n(Cc3ccc(F)cc3)c3c1CCC3)CCC2,4.01%
4,CC(Oc1cccc(Cl)c1)C(=O)Nc1ccccc1F (stereo not drawn),2.82%
5,Cc1ccc(C)n1-c1nnc(N2CCC(C(=O)NCc3ccco3)CC2)s1,-0.522%
6,O=C1ON=C(c2ccccc2)/C1=C\c1ccc(Cl)cc1Cl,0.685%
7,Cc1cccc(OCC(=O)Nc2c(C)cccc2C)c1,-4.04%
8,CC(C)CCNC(=O)c1cc(S(=O)(=O)N2CCC3(CC2)OCCO3)ccc1F,-5.64%
9,COc1ccc(-n2ncc3c2ncn2nc(COc4cc(C(C)C)ccc4C)nc32)cc1,0.569%
10,CCCS(=O)(=O)Nc1c(NCC)c2ccccc2oc1=O,-1.68%
11,COC(=O)C1=CN(C(C)C)C=C(C(=O)OC)C1c1ccccc1OCc1ccccc1,-3.23%
12,O=C(c1ccc(Br)cc1)N1CCN(c2cccc(Cl)c2)CC1,-10.8%
13,COc1cccc(CN2CCN(Cc3ccc(C)cc3)CC2)c1,-0.622%
14,CCNC(=O)C1CC(=O)N(c2ccc(C)cc2)C1 (stereo not drawn),1.81%
15,COc1ccc(Br)cc1CN1C(=O)c2ccccc2C1C(=O)NCCc1ccccc1 (stereo not drawn),4.63%
16,COc1cc(-c2nc3s/c(=C\c4ccccc4)c(=O)n3n2)cc(OC)c1OC,-4.85%
17,COc1cc(NC(=O)C2CC3CCC2C3)c(OC)cc1Cl (stereo not drawn),-3.04%
18,CC1CCN(CCNC(=O)CN(C)S(=O)(=O)c2cccc3nsnc23)CC1,-1.43%
19,COc1ccc(/C(O)=C/C2=NCC(C)NC2=O)cc1OC (stereo not drawn),2.04%
20,CCCN1CCC(N2CC3(C)CC2CC(C)(C)C3)CC1 (stereo not drawn),0.217%
21,CCOC(=O)c1cnc2cc(F)c(F)cc2c1NC1CC1,-2.79%
22,CCCNc1nc(Cl)nc(NCC(=O)OCC)n1,-1.56%
23,O=C1NC(=S)S/C1=C\c1ccccn1,2.65%
24,Nc1n[nH]c(SCC(=O)c2ccc(O)cc2O)n1,1.63%
25,Cc1ccc(S(=O)Cc2ccc(C(=O)NC3CCCC(C)C3C)o2)cc1 (stereo not drawn),-4.96%
26,Cc1ccc(C(=O)Nc2nc3ccccc3s2)cc1,-5.63% and -7.32%

row,SMILES,% Inhibition @ 10 uM
1,CC1(C(=O)O)CCCC2(C)c3cc(O)ccc3CCC12 (stereo not drawn),-5.15%
2,COC(=O)C(C(=O)OC)C(c1ccccc1)N1CCOCC1 (stereo not drawn),-5.5%
3,COc1ccc(Cl)cc1C(=O)Nc1sc2c(c1C(N)=O)CCCCC2,0.431%
4,O=C(NC(c1ccccc1)c1ccccc1)C1CCCN(c2cnccn2)C1 (stereo not drawn),0.635%
5,CC(c1ccccc1)n1c(CCNC(=O)c2ccco2)nc2ccccc21 (stereo not drawn),-4.95%
6,Cc1cccc(C)c1N1C(=O)C2C(C1=O)C1C=CC2C12CC2 (stereo not drawn),2.01%
7,O=C1CN(C(=O)c2ccco2)CC(=O)N1,-0.436%
8,CCc1ccc(CNC(=O)Cn2ccc3cc(S(=O)(=O)N4CCC(C)CC4)ccc32)cc1,-2.74%
9,C#CCSc1nc2c(c(=O)n1-c1ccc(OC)cc1)C1(CCCC1)Cc1ccccc1-2,1.8%
10,O=C(Nc1sc2c(c1C(=O)NCCc1ccc(O)cc1)CCCC2)c1ccccc1,-4.02%
11,CN1CCN(C(=O)c2cc3nc4c(c(C(F)(F)F)n3n2)CCc2ccccc2-4)CC1,-2.8%
12,C/C(=N\CC1CCNCC1)C1=C(O)CC(C)(C)CC1=O,10.3%
13,CC(=O)c1ccc(N2CCCCC2)c(F)c1,-0.128%
14,O=C(CN1Cc2ccccc2C1=O)NCc1cccs1,-7.33%
15,O=C(/C(=C/c1cccnc1)n1ccnc1)c1ccc(Cl)cc1Cl,-1.71%
16,Cc1ccc(NC(=O)c2sc3ccccc3c2Cl)nc1,-2.56%
17,Cc1nn(CC(=O)NCc2ccc(OC(C)C)cc2)c(=O)c2nn(-c3ccccc3)c(C)c12,2.14%
18,COc1ccc(CNC2CC(C)N(C)CC2C)cc1OC (stereo not drawn),-2.74%
19,COc1ccc(N2CCN(C(=O)CN(c3cccc(C)c3C)S(C)(=O)=O)CC2)cc1,-8.43%
20,Cc1ccsc1/C=c1\sc2nc(-c3ccc(F)cc3)nn2c1=O,-2.98%
21,C=C(C)CN(CC)Cc1ccc([N+](=O)[O-])cc1,-6%
22,CCOC(=O)N1CCC(NC(=O)CSc2c3c(nc4ccc(Cl)cc24)CCCC3)CC1,-8.9%
23,Cc1ccc(Cc2cnc(NC(=O)/C=C/c3ccco3)s2)cc1,10.9%
24,O[C@]12CCCC[C@@H]1[C@@H](c1cccc(Cl)c1Cl)NCC2,-1.8%
